Reference: article PMC4336329 (PLoS ONE, 2015)
The whole screen tested about 310,000 compounds, of which about 14,000 (4.5%) showed an effect of 50% or more. The effect is printed as a negative number. This is one part of the list.

Target: human ether-à-go-go-related gene (hERG) potassium channel (human, UniProt Q12809)
Assay: primary screen, population patch clamp on CHO cells stably expressing hERG
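Also: peak tail current of the secondary pulse compared with the same well before compound.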

Chain of human ether-à-go-go-related gene (hERG) potassium channel (Q12809 whole entry, looked up): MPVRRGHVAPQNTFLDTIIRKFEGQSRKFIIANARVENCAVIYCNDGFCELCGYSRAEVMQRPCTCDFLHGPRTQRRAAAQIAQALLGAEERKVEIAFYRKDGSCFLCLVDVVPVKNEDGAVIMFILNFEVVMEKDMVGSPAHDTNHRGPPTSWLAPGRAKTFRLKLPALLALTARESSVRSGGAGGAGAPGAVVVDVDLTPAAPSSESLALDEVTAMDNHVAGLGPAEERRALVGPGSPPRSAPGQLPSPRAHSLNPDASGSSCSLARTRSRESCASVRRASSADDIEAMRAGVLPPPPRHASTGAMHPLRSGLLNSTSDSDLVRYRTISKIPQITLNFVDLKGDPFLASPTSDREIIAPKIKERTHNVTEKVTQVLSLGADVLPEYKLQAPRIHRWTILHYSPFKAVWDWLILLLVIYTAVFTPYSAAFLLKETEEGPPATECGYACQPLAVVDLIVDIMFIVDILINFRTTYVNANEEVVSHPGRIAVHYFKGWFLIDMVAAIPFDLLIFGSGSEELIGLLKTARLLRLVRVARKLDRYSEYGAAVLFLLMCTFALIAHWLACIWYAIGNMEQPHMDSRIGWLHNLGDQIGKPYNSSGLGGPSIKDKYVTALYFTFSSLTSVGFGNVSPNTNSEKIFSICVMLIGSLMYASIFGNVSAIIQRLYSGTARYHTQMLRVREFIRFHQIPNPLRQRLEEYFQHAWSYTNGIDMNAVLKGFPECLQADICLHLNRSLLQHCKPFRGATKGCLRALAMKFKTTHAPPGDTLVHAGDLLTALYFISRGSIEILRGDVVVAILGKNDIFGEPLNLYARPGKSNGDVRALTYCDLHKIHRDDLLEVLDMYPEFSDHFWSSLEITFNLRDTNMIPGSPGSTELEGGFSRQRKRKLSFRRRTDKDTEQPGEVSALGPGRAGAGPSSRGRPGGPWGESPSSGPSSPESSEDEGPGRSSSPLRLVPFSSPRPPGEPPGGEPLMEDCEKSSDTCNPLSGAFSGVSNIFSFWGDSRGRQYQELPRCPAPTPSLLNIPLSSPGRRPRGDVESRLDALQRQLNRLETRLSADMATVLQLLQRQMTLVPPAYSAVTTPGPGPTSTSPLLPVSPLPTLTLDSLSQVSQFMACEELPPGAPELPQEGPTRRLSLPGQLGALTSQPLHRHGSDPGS

SMILES | hERG current change (%, negative = inhibition) at 10uM
N#C/C(=C/c1cn(-c2ccccc2)nc1-c1cccc(S(=O)(=O)N2CCCC2)c1)C(=O)NCc1ccco1 | 3.17%
CNc1ccccc(-c2ccc3ccccc3n2)c1=O | -15.5%
CC1(C)C(=O)Nc2ccccc2N1C(=O)CN1C(=O)C(=O)N(C2CCCC2)C1=O | 5.47%
O=C(N/N=C/c1cccnc1)c1ccccc1 | 17.3%
COc1ccc(C(=O)COC(=O)c2ccc(OC)c(OC)c2)cc1OC | 4.31%
COc1ccc(CNC(=O)c2cc(-c3ccncc3)nc3c(C)cc(C)cc23)cc1OC | 14.6%
O=C(N/N=C/c1cccn1-c1ccc([N+](=O)[O-])cc1)c1cccnc1 | -22.5%
COc1ccc(/C=C/C(=O)OCC(=O)Nc2ccc(N3CCOCC3)cc2)cc1OC | 3.9%
CCOC(=O)Cn1nc(Cc2ccccc2)c2ccccc2c1=O | 4.1%
O=C(Oc1ccc(N(C(=O)c2ccncc2)S(=O)(=O)c2ccc(F)cc2)cc1)c1ccncc1 | -0.259%
S=C(NCc1ccc2[nH]c3c(c2c1)CCCC3)Nc1ccccc1 | 2.38%
Cc1ccc(-n2c(C)cc(C(=O)COc3c(CO)cc(F)cc3CO)c2C)cc1C | -16.7%
Cl.OC(COc1ccc(Cl)cc1)CN1CCCCC1 (centres unmarked) | -61.9%
Cc1ccccc1-n1c(C)cc(/C=C2/C(=N)N3C(c4ccccc4)=CSC3=NC2=O)c1C | 8.13%
COc1cc2cc(C(=O)N3CCN(Cc4ccc5c(c4)OCO5)CC3)[nH]c2cc1OC | 12.4%
CC(NC(=O)Nc1ccc(O)cc1)(C(F)(F)F)C(F)(F)F | 16.1%
O=C(CNC(=O)c1ccccc1)OCC(=O)c1ccc(Cl)s1 | 0.566%
COc1cc(CN2CCC(C(=O)NC3CCCC3)CC2)cc(Br)c1O.O=C(O)C(=O)O | -27.5%
COc1ccc(N2CCN(C(=O)c3cc(N4C(=O)C5C6CCC(C6)C5C4=O)ccc3Cl)CC2)cc1 (centres unmarked) | -8.93%
O=C(CSc1nc2ccccc2c(=O)n1-c1ccc(F)cc1)Nc1ccc2c(c1)CCC2 | -12%
COc1ccc(-c2nnc(SC)n2C)cc1 | 2.88%

SMILES | hERG current change (%, negative = inhibition) at 10uM
Cc1ccc(S(=O)(=O)N2CCN(c3nccnc3C#N)CC2)cc1 | -54.8%
CCn1ncc(C(=O)Nc2ccccc2C)c1C | 9.29%
CCOc1ccc(C(CC(=O)O)NC(=O)C(CC)c2ccccc2)cc1 (centres unmarked) | 8.29%
COc1cc(-c2nnc(SCC(=O)c3ccccc3)o2)cc(OC)c1OC | -7.2%
Cc1ccccc1NC(=O)c1ccccn1 | 5.81%
COc1cccc2c1cc1c(=O)n(CC(=O)NCCCc3ccccc3)nc(C)n12 | 4.33%
Cc1ccccc1C[n+]1cccc2ccccc21.[Br-] | -4.13%
Cc1ccc(S(=O)(=O)NCCCCCC(=O)Nc2ccccc2C)cc1 | -11.4%
O=C(N/N=C/c1sc(=O)n(Cc2ccc(Br)cc2)c1Cl)c1ccco1 | 13.4%
COc1ccccc1CNC(=O)CCN1C(=O)COc2ccccc21 | 1.89%
O=C(C1CCC(=O)N(C2CCCC2)C1)N1CCN(Cc2cccc(Cl)c2)CC1 (centres unmarked) | -2.16%
Cc1ccc(Cn2nc(C)c(NC(=O)CCCn3nc(C)c([N+](=O)[O-])c3C)c2C)cc1 | -10.9%
N/C(=N\c1nc2c(c(=O)[nH]1)CCC2)Nc1cccc2ccccc12 | -6.95%
Cc1ccc(N(CC(=O)NCCc2ccccc2)S(=O)(=O)c2c(C)noc2C)cc1 | -32%
Cc1ccc(S(=O)(=O)N(C)C)cc1NC(=O)COc1cccc(-n2cnnn2)c1 | -28.3%
O=C(CN1C(=O)COc2ccc(S(=O)(=O)N3CCCCCC3)cc21)NCc1ccc(F)cc1 | -8.68%
COc1ccc(NC(=O)C(C)Sc2nnc(C3CC3)n2C2CC2)cc1 (centres unmarked) | -13.3%
COc1ccc(-c2nnc(SCC(=O)NC(=O)Cc3ccccc3)n2C)cc1 | -5.69%
CC(=O)c1c(C)c(C)c2n1CCn1c(C)ccc1-2 | 13.1%
CCN(CC)S(=O)(=O)c1ccc(C(=O)NC(=S)N(CCO)Cc2ccccc2)cc1 | 13.3%
